Assay results reported in PMC11912937.
No constants are given. Whether binding was seen depends on the method and setting. For part of these data: In cells and extracts the contact can be indirect. Some results given as binding are weak or reduced against the parent protein; the word gives no strength.

Sequences of proteins named here, by UniProt entry; tags and fusion partners are left off. A change or cut given only in a name is not applied to a line headed by its entry. Residues count along the entry.
UniProt Q96BT3: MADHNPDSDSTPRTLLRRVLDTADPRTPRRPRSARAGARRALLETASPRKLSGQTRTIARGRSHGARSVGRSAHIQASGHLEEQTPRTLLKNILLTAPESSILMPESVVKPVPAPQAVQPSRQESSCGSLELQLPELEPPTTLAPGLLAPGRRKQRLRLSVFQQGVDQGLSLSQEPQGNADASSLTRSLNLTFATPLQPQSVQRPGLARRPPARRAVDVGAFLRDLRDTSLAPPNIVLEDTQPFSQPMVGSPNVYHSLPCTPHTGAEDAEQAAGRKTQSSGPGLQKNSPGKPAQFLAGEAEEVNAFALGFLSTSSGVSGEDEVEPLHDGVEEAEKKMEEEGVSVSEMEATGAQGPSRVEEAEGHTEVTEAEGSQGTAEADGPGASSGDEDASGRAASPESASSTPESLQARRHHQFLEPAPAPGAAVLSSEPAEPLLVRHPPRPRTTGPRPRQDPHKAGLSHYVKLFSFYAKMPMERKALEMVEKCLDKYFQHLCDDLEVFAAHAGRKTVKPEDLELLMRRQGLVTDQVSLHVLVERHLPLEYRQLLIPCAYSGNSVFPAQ
UniProt Q5EE01: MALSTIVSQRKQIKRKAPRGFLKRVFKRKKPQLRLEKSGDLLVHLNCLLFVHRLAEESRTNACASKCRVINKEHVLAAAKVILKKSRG
UniProt Q9BU64: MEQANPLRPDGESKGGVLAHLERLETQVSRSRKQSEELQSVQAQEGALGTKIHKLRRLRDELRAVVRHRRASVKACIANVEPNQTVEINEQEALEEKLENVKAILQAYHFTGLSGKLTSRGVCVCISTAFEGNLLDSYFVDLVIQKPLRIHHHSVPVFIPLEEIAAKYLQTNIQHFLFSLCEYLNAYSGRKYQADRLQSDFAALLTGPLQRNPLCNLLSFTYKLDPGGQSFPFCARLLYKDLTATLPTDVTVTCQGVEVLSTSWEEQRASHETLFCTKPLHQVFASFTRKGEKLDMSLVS
UniProt Q6IPU0: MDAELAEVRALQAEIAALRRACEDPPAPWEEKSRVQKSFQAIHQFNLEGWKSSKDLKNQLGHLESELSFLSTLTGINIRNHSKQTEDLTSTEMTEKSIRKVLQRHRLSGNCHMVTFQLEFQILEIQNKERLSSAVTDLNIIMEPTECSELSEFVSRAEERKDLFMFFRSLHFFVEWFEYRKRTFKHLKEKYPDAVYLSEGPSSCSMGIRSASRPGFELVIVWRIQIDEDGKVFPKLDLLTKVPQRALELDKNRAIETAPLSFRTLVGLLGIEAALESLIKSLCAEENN
UniProt Q7L2Z9: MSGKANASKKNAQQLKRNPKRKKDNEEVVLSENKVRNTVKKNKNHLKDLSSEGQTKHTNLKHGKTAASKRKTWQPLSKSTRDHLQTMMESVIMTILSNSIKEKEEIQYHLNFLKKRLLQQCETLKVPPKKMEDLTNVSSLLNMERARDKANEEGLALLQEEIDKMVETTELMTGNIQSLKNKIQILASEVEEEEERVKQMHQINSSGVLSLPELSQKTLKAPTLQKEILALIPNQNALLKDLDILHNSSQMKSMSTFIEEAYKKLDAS
UniProt Q71F23: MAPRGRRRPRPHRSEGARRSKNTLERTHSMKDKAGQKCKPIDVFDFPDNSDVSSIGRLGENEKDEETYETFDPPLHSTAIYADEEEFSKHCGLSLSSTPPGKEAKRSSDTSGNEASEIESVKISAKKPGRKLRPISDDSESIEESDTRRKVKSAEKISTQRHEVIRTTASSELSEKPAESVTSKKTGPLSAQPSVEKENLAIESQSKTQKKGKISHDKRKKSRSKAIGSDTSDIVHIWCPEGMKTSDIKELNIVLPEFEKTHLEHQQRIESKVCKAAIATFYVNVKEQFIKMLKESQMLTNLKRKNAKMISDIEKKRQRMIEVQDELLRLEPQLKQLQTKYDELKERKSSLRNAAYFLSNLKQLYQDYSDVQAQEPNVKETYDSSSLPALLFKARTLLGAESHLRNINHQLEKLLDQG
UniProt Q13352: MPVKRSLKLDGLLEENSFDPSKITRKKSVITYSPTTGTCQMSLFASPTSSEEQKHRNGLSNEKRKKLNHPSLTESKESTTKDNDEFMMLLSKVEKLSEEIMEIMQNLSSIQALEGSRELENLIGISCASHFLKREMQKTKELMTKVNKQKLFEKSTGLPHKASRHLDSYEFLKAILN
UniProt Q9Y5B9, residues 644-988: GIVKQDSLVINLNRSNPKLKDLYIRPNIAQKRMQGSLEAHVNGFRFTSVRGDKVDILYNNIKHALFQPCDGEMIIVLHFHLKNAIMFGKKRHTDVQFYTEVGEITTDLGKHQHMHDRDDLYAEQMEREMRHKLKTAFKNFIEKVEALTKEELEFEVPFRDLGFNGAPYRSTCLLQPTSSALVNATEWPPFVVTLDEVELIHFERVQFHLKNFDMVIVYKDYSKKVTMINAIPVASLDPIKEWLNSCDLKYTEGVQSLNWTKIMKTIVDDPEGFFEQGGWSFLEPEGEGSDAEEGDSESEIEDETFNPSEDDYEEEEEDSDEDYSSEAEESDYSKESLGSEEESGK
UniProt Q08945, residues 197-514: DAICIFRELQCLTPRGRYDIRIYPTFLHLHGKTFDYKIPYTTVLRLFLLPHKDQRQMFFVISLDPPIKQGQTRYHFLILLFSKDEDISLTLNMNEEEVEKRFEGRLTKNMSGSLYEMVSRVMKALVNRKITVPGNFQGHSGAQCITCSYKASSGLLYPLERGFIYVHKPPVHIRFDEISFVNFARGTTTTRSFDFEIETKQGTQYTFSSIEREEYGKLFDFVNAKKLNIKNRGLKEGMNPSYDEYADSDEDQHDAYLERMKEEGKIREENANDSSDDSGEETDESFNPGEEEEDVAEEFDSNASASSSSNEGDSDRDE

Legend:
[1] = biological target: ^MBPCENP-T/CENP-W (human) (UniProt Q96BT3+Q5EE01); experiment: pull-down; amylose resin, ^MBPCENP-T/CENP-W as bait, FACT constructs as preys; 3 µM each; 20 mM Hepes pH 6.8, 300 mM NaCl, 2.5% glycerol, 1 mM TCEP, 0.01% Tween; 4°C; both purified
[2] = biological target: ^GSTCENP-OPQUR (CENP-OPQUR with CENP-U fused to an N-terminal GST) (human) (UniProt Q9BU64+Q6IPU0+Q7L2Z9+Q71F23+Q13352); experiment: pull-down; glutathione-agarose, CENP-OPQUR with GST on CENP-U as bait, FACT constructs as preys; 3 µM each; 20 mM Hepes pH 6.8, 300 mM NaCl, 2.5% glycerol, 1 mM TCEP, 0.01% Tween; 4°C; both purified
[3] = biological target: ^EGFPCENP-U^115-C (human) (UniProt Q71F23); experiment: co-IP; GFP-Trap magnetic agarose, lysates (7 mg/ml) of STLC-synchronized DLD-1 cells harvested by mitotic shake off, Benzonase in the lysis buffer (75 mM Hepes pH 7.5, 150 mM KCl, 0.075% NP-40), 3 h at 4°C; western blot for GFP, SSRP1, PLK1
^EGFPCENP-U^fl (human) = ^EGFPCENP-U^fl (human) (UniProt Q71F23); experiment: as above

| Substance | binding [1] | binding [2] | binding [3] | binding (^EGFPCENP-U^fl (human)) |
| --- | --- | --- | --- | --- |
| FACT^trunc (SPT16^508–988/SSRP1^1–514) (from UniProt Q9Y5B9 508-988; Q08945 1-514) (complex) | binds | – | – | – |
| SPT16^Mid-AID (SPT16^644–988) (from UniProt Q9Y5B9 644-988) (domain or fragment) | binds | binds weakly | – | – |
| SSRP1^Mid-AID (SSRP1^197–514) (from UniProt Q08945 197-514) (domain or fragment) | binds weakly | – | – | – |
| endogenous FACT in DLD-1 cells (detected by SSRP1 blot) (from UniProt Q08945 1-709; Q9Y5B9 1-1047) (complex) | – | – | no binding | binds |
